# Results taken from PMC12136788.
# The list shows a part of the results.
# B1: chr6:83927055:83927056:+_ENSMUSG00000030016_ENSMUST00000032088|mus_mus|FALSE|FALSE (ssRNA)
# RNA: GGGAGUUCUACAGUCCGACGAUCUGUACUUUUUGCUUUAGGAGAAGAGACCACAGUAGCCUUGAUGCUUGAUUUACUACUAUAUACAUUUGAUACAGUCAGCACACUACUUUUACCAGUUUCAUCAGGCUUACUGGUCUGAUCCAACAGAGGAUUGAGCAUCA
# B2: chr4:25749455:25749456:-_ENSG00000091490_ENST00000264868|hu_hu|hu_hu_hu_mus_False|48_108 (ssRNA)
# RNA: GGGAGUUCUACAGUCCGACGAUCGCAAGCACUAGGAUAGAAAAAUCCACAGGGGGAAAAAAUGUAAACCAAUGUACAAUGUUAUCGCCCUCCCUGCGUGUGGAGUGUUUGUCUCAAGGCUCCUUCUAGCUGCUGGAUUUGGGACAACAGAGGAUUGAGCAUCA
# B3: chr4:76721835:76721836:+_ENSG00000138768_ENST00000264904|hu_mus|hu_hu_hu_mus_True|28_48 (ssRNA)
# RNA: GGGAGUUCUACAGUCCGACGAUCGUUUGGCUGGGGUUUCUGAGACGCUCUGGAAUAUAACUCAUGUUUGCUAAUAAAUCCUAGUUUUCUAUGAAAUUUCUCUUUGCAAUCCUCUUCCUCUAUUAGUUGCUUUAGUUUCUCUUUCAACAGAGGAUUGAGCAUCA
# B4: chr1:225611761:225611762:-_ENSG00000143815_ENST00000272163|hu_mus|hu_hu_hu_mus_True|8_38 (ssRNA)
# RNA: GGGAGUUCUACAGUCCGACGAUCCCAGGCCAUCGGCCUCUGACCACUUCACCCUCAACAAACUUCCUACUUGGCAUUUUCUAAAAUUAGUCUGGCCCAGGUUCCGGGGGAACUCCAGCCACUCCAGGGAGAAUAGUAGCAGCCCAACAGAGGAUUGAGCAUCA
# B5: chr1:220355683:220355684:-_ENSG00000118873_ENST00000358951|hu_mus|FALSE|FALSE (ssRNA)
# RNA: GGGAGUUCUACAGUCCGACGAUCGCUGUGGCACAUCUCUUCAGUGGAGCUUUCUCCAUGCAAACACUUCCAGAAAAAGAAACUGCCUAGAGCCACACACUCCUCCUCUCCGACCUUCCUUAUGCUCAGUGCAUCCUUCUCAUACAACAGAGGAUUGAGCAUCA
# B6: chr1:163112212:163112213:-_ENSG00000143248_ENST00000313961|hu_hu|hu_hu_hu_mus_False|58_108 (ssRNA)
# RNA: GGGAGUUCUACAGUCCGACGAUCUUUAUUUAUCCAGAAGAGUGAGUUACAUACUAGGCAAAGUAUUGGAUACAAUAUUCUAAAGAUAAACACUAUUGGUCCAGAAUUUAAAACUUUAUGAGCGAAGUGCUGGCACAGGACUUACAACAGAGGAUUGAGCAUCA
# B7: chr14:66974463:66974464:+_ENSMUSG00000022044_ENSMUST00000074523|mus_hu|mus_mus_mus_hu_False|28_58 (ssRNA)
# RNA: GGGAGUUCUACAGUCCGACGAUCUUGUAGGACGACUUAUUCAGGGGAUCGGCCAGGAAGCAGGAGCAGAACAAGGACACUAGUGGGAGCUCCUUCAUCUUCUCUUUAUAGGCUGCAAGGGUCAUGUUUCUGGGAUCUGGUGGCCAACAGAGGAUUGAGCAUCA
# B8: chr5:125368827:125368828:+_ENSMUSG00000079215_ENSMUST00000111417|mus_hu|FALSE|FALSE (ssRNA)
# RNA: GGGAGUUCUACAGUCCGACGAUCUAGCUUCAAAAGGGUUAGUCAUAUUCCCCAGCAACAGCAUGAUAAAAUAAUUCAACUAUGUAGAAAUAUAGAACUCUAGGACUAGCUGGAAACUCGGAAAUCAUUUAGCCUAAUGUUCUCCAACAGAGGAUUGAGCAUCA
# B9: 52142372_52143545_1010_CDS_ENSG00000112118_ENST00000229854|human|control|control (ssRNA)
# RNA: GGGAGUUCUACAGUCCGACGAUCAUUUUCUAGGUCUCGUUCCACCCCUCCCAAGAGCAAGCAGAGGAUUGCUUUCUUGACAUAGUCAUGCCCAUGGAUACUUGGGGCCAAUGACUUGGCCAGCUGGUCAAAGAUAUCCUUGGACAACAGAGGAUUGAGCAUCA
# B10: chr16:45382771:45382772:-_ENSMUSG00000022661_ENSMUST00000163230|mus_mus|mus_mus_mus_hu_True|88_98 (ssRNA)
# RNA: GGGAGUUCUACAGUCCGACGAUCCUGGGUCAUGUUAUGGGCCCAAUGGAUAGGGAGGGCAUGCUUCUCAAAAAAUGUGAGCUAUUGUCUAAGACUAACAAUAUUUAUCUAGCUAUAAAAAUAAGUUAAAUGAAUAAGUUAAGACAACAGAGGAUUGAGCAUCA
# B11: 153595797_153595917_4147_3pUTR_ENSMUSG00000027479_ENSMUST00000028981|mouse|control|control (ssRNA)
# RNA: GGGAGUUCUACAGUCCGACGAUCAGAGUGUGAGGCCCUUCAGCCAACAUCAGAGCCCUUGAUUUGCAAACAAGAAAAAAACAAAAUAAAGCAAAGUAAGAGGUGGAUUAGAACCCUCACAUCUGAUGUCUCACUGACACGAUACAACAGAGGAUUGAGCAUCA
# B12: chr19:36179134:36179135:+_ENSMUSG00000024800_ENSMUST00000025714|mus_hu|motif|central (ssRNA)
# RNA: GGGAGUUCUACAGUCCGACGAUCUUGUUUAUCACUUACACAAAGGAGAAAUAACCAGUCUUUCUCUCUUAAAGUACAUCGGAAUUCAUUAAGCUGGCAGCCUUUUAAAAAGAUGCUUCACUAGGUUUCGUUUGUUGUUUUAAUCAACAGAGGAUUGAGCAUCA
# B13: chr17:21094002:21094003:+_ENSMUSG00000007564_ENSMUST00000007708|mus_mus|motif|central (ssRNA)
# RNA: GGGAGUUCUACAGUCCGACGAUCCAUGUAGCGAACACGCCAAGACUUGUCCUCAGCAGCCUGUCGCAAGGUGGGCAUCACGGAGGCCUCCAGGUCCUCCUGUGGCAGAAGCUGGGCAAUAUUCACACAUGCCUCCACUGCCAGCAACAGAGGAUUGAGCAUCA
# B14: chr2:217001844:217001845:+_ENSG00000079246_ENST00000392132|hu_hu|hu_hu_hu_mus_False|18_18 (ssRNA)
# RNA: GGGAGUUCUACAGUCCGACGAUCACCAACUUGAGGAUUAGAUCUUUUGUCAUAAGCAUAUCGGACGAUGGCGACCAUGUUUAACUCAUCCAAAGCAUGAACGAGAGAGGAAAGGGCAACUGCAGCUGCCUCAUCAUCCUUUGCCAACAGAGGAUUGAGCAUCA
# B15: chr7:54106310:54106311:+_ENSMUSG00000063229_ENSMUST00000048209|mus_hu|FALSE|FALSE (ssRNA)
# RNA: GGGAGUUCUACAGUCCGACGAUCCCUUUCCCCCAUUAGGUAACGGAAUCGGGCUGAAUCCAGAUUGCAACCGCUUCCAAUAACACGGUUUUUGGGAAAACCACUUAUCUUCCAAGCCACGUAGGUCAAGAUAUCCACUGGAUUCAACAGAGGAUUGAGCAUCA
# B16: chr14:76904430:76904431:+_ENSMUSG00000022010_ENSMUST00000022587|mus_mus|mus_mus_mus_hu_True|38_48 (ssRNA)
# RNA: GGGAGUUCUACAGUCCGACGAUCUGCAGCCAAAAACACCCUCGUGGAAAAAAAGAGGGAACACCAGCAGCCUUGUAUAAGCUAGAUAAAACCGCCUAGCUGUCUGCAGCCCAGGGAGAAACAGAAAACGGCAGCCCUAAUUUACAACAGAGGAUUGAGCAUCA
# B17: chr1:63797873:63797874:+_ENSMUSG00000025962_ENSMUST00000128621|mus_mus|motif|central (ssRNA)
# RNA: GGGAGUUCUACAGUCCGACGAUCAUCCUCUGGGGUGGCAUGAAUUUAAACAGUAAACAGACUUAGGAACACACAGCACUGCGGCUCUCUGCAUGUUUGUGGCAGAACUUGCAUCUACAUCAGAAAAUGAAAAUACUUGGGUCCCAACAGAGGAUUGAGCAUCA
# B18: chr12:48362563:48362564:+_ENSG00000134291_ENST00000256686|hu_hu|hu_hu_hu_mus_False|18_68 (ssRNA)
# RNA: GGGAGUUCUACAGUCCGACGAUCUCCGUCAAGCCCUUCGAUAGACCCUUGCGGGGGAAACUGUAAUAAUUCUAACUGGGGAAGGAAAAGAAACGCCAAAAACUUUCCAAAAAGCGGUUCAAAAAGCAGGCGGGAGGGGGAGGUCAACAGAGGAUUGAGCAUCA
# B19: chr7:3608459:3608460:+_ENSMUSG00000035632_ENSMUST00000038913|mus_mus|FALSE|FALSE (ssRNA)
# RNA: GGGAGUUCUACAGUCCGACGAUCGCUGGGCGUUGGAGAACUGGGGGGAUUUACAGGCAGUGGCACCAAGAGGCUGGGUCCCCCCGAGUUAUUCCCUGAGCCUGAAGCCACAUUCCCAGCCCCUGAUGGGGCUGCCGUACUGGACAACAGAGGAUUGAGCAUCA
# B20: chr5:156566167:156566168:-_ENSG00000155868_ENST00000420343|hu_mus|FALSE|FALSE (ssRNA)
# RNA: GGGAGUUCUACAGUCCGACGAUCAAGAUCUUCUAGCUUUUCUUCUCGUUUUAUACUCCCAGGACUUCUUAUUAAGAUGUCUAAAAGGUCUAAGAAAUUAAUCAGUAUAGACAUAUUGAGUUUUCUCAGCUCUUUCUUAUGAUCCAACAGAGGAUUGAGCAUCA
# B21: chr4:138660994:138660995:-_ENSMUSG00000050608_ENSMUST00000143971|mus_hu|motif|central (ssRNA)
# RNA: GGGAGUUCUACAGUCCGACGAUCGAAAUCAUGCUGACAGUUGGAAUAAGCCAUUCCUAAUCCCAUGCCAGAACCGAAGGCGGAUGGCCACAUUCUUCUUUUAAAGAAGGUAAGUGAGAAAACAAUUCCUAAUCCAAAACCAGUCAACAGAGGAUUGAGCAUCA
# B22: chr8:26227902:26227903:+_ENSG00000221914_ENST00000315985|hu_mus|motif|central (ssRNA)
# RNA: GGGAGUUCUACAGUCCGACGAUCGAGAAUGCCAGCCUAAUUCACUUUGUCUUGAAAUAUAUACAGAUUGUUUGUAGUUGCGGCAGCAAUGAUGUUUUCCUUGGGAUGCCAGGCUGUAUGAAGGAUUUUCUUGUUGAAGUCUAGCAACAGAGGAUUGAGCAUCA
# Target: T1, UNK ZnF1-3 (human, UniProt Q9C0B0 31-174)
# T1 sequence: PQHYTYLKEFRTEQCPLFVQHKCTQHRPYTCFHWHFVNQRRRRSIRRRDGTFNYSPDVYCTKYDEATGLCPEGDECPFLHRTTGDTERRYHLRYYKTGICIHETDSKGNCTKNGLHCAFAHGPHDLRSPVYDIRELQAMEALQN
# Assay: nsRBNS (natural sequence RNA bind-n-seq); RBNS binding buffer (assumed for nsRBNS): 25 mM Tris pH 7.5, 150 mM KCl, 3 mM MgCl2, 0.01% Triton X-100, 500 ug/ml BSA, 20 U/ml SUPERase-In, 4 C; UNK is unkempt and MSI1 is Musashi-1; names of the RNAs are library labels; protein concentration not given here; high values mean tight binding
row,Binder,binding signal [enrichment R]
1,B1,0.808
2,B2,1.13
3,B3,0.552
4,B4,1.29
5,B5,1.09
6,B6,1.78
7,B7,2.13
8,B8,1.38
9,B9,1.14
10,B10,0.965
11,B11,1.32
12,B12,0.799
13,B13,0.622
14,B14,1.92
15,B15,0.863
16,B16,2.53
17,B17,1.44
18,B18,2.86
19,B19,0.668
20,B20,0.416
21,B21,1.09
22,B22,1.24
